Test results from the supplement of paper PMC8728848.
The list shows a part of the results.

Legend:
Test in all cases: glycan array binding signal (z-score within array); higher = stronger binding
Details in all cases: glycan notation: IUPAC condensed, linker removed
[1] = target: Neu5Ac(a2-6)Gal(b1-4)GlcNAc(b1-3)Gal(b1-4)GlcNAc(b1-3)GalNAc
Summary of the method: (§1)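 From the Consortium for Functional Glycomics database, 3228 arrays were curated, keeping only those whose protein sequence was available. Binding is given as a within-array Z-score averaged across arrays sharing a protein sequence and across linkers. Negative Z-scores can be read as non-binding.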

[2] = target: Neu5Ac(a2-6)Gal(b1-4)GlcNAc(b1-3)Gal(b1-4)GlcNAc(b1-3)[Neu5Ac(a2-6)Gal(b1-4)GlcNAc(b1-3)Gal(b1-4)GlcNAc(b1-6)]GalNAc
Summary of the method: as §1

[3] = target: Neu5Ac(a2-6)Gal(b1-4)GlcNAc(b1-3)Gal(b1-4)GlcNAc(b1-6)[Gal(b1-3)]GalNAc
Summary of the method: as §1

[4] = target: Neu5Ac(a2-6)Gal(b1-4)GlcNAc(b1-3)Gal(b1-4)[Fuc(a1-3)]GlcNAc(b1-3)Gal(b1-4)[Fuc(a1-3)]GlcNAc
Summary of the method: as §1

[5] = target: Neu5Ac(a2-6)Gal(b1-4)GlcNAc(b1-3)GalNAc
Summary of the method: as §1

[6] = target: Neu5Ac(a2-6)Gal(b1-4)GlcNAc(b1-3)[Neu5Ac(a2-6)Gal(b1-4)GlcNAc(b1-6)]GalNAc
Summary of the method: as §1

[7] = target: Neu5Ac(a2-6)Gal(b1-4)GlcNAc(b1-6)GalNAc
Summary of the method: as §1

[8] = target: Neu5Ac(a2-6)Gal(b1-4)GlcNAc(b1-6)[Gal(b1-3)GlcNAc(b1-3)]Gal(b1-4)Glc
Summary of the method: as §1

[9] = target: Neu5Ac(a2-6)Gal(b1-4)GlcNAc(b1-6)[Gal(b1-3)]GalNAc
Summary of the method: as §1

[10] = target: Neu5Ac(a2-6)Gal(b1-4)GlcNAc6S
Summary of the method: as §1

[11] = target: Neu5Ac(a2-6)GalNAc
Summary of the method: as §1

[12] = target: Neu5Ac(a2-6)GalNAc(b1-4)GlcNAc
Summary of the method: as §1

[13] = target: Neu5Ac(a2-6)GalNAc(b1-4)GlcNAc6S
Summary of the method: as §1

[14] = target: Neu5Ac(a2-6)GlcNAc(b1-4)GlcNAc
Summary of the method: as §1

[15] = target: Neu5Ac(a2-6)GlcNAc(b1-4)GlcNAc(b1-4)GlcNAc
Summary of the method: as §1

[16] = target: Neu5Ac(a2-8)Neu5Ac
Summary of the method: as §1

[17] = target: Neu5Ac(a2-8)Neu5Ac(a2-3)Gal(b1-3)GalNAc(b1-4)[Neu5Ac(a2-3)]Gal(b1-4)Glc
Summary of the method: as §1

[18] = target: Neu5Ac(a2-8)Neu5Ac(a2-3)Gal(b1-3)GalNAc(b1-4)[Neu5Ac(a2-8)Neu5Ac(a2-3)]Gal(b1-4)Glc
Summary of the method: as §1

[19] = target: Neu5Ac(a2-8)Neu5Ac(a2-3)Gal(b1-4)Glc
Summary of the method: as §1

[20] = target: Neu5Ac(a2-8)Neu5Ac(a2-3)Gal(b1-4)GlcNAc
Summary of the method: as §1

[21] = target: Neu5Ac(a2-8)Neu5Ac(a2-3)[Gal(b1-3)GalNAc(b1-4)]Gal(b1-4)Glc
Summary of the method: as §1

[22] = target: Neu5Ac(a2-8)Neu5Ac(a2-3)[GalNAc(b1-4)]Gal(b1-4)Glc
Summary of the method: as §1

[23] = target: Neu5Ac(a2-8)Neu5Ac(a2-8)Neu5Ac
Summary of the method: as §1

[24] = target: Neu5Ac(a2-8)Neu5Ac(a2-8)Neu5Ac(a2-3)Gal(b1-4)Glc
Summary of the method: as §1

[25] = target: Neu5Ac(a2-8)Neu5Ac(a2-8)Neu5Ac(a2-3)[Gal(b1-3)GalNAc(b1-4)]Gal(b1-4)Glc
Summary of the method: as §1

[26] = target: Neu5Ac(a2-8)Neu5Ac(a2-8)Neu5Ac(a2-3)[GalNAc(b1-4)]Gal(b1-4)Glc
Summary of the method: as §1

[27] = target: Neu5Ac(a2-8)Neu5Ac(a2-8)Neu5Ac(a2-8)Neu5Ac(a2-3)[GalNAc(b1-4)]Gal(b1-4)Glc
Summary of the method: as §1

[28] = target: Neu5Ac(a2-8)Neu5Gc(a2-3)Gal(b1-4)GlcNAc
Summary of the method: as §1

[29] = target: Neu5Ac(b2-6)Gal(b1-4)GlcNAc
Summary of the method: as §1

[30] = target: Neu5Ac(b2-6)GalNAc
Summary of the method: as §1

[31] = target: Neu5Ac9Ac(a2-3)Gal(b1-3)GlcNAc
Summary of the method: as §1

[32] = target: Neu5Ac9Ac(a2-3)Gal(b1-4)GlcNAc
Summary of the method: as §1

[33] = target: Neu5Ac9Ac(a2-6)Gal(b1-4)GlcNAc
Summary of the method: as §1

[34] = target: Neu5Gc(a2-3)Gal(b1-3)GlcNAc
Summary of the method: as §1

[35] = target: Neu5Gc(a2-3)Gal(b1-3)[Fuc(a1-4)]GlcNAc
Summary of the method: as §1

[36] = target: Neu5Gc(a2-3)Gal(b1-4)Glc
Summary of the method: as §1

[37] = target: Neu5Gc(a2-3)Gal(b1-4)GlcNAc
Summary of the method: as §1

[38] = target: Neu5Gc(a2-3)Gal(b1-4)GlcNAc(b1-3)Gal(b1-4)GlcNAc(b1-2)Man(a1-3)[Neu5Gc(a2-3)Gal(b1-4)GlcNAc(b1-3)Gal(b1-4)GlcNAc(b1-2)Man(a1-6)]Man(b1-4)GlcNAc(b1-4)GlcNAc
Summary of the method: as §1

[39] = target: Neu5Gc(a2-3)Gal(b1-4)[Fuc(a1-3)]GlcNAc
Summary of the method: as §1

[40] = target: Neu5Gc(a2-6)Gal(b1-4)GlcNAc
Summary of the method: as §1

[41] = target: Neu5Gc(a2-6)GalNAc
Summary of the method: as §1

[42] = target: Neu5Gc(a2-8)Neu5Ac(a2-3)Gal(b1-4)GlcNAc
Summary of the method: as §1

[43] = target: Neu5Gc(a2-8)Neu5Gc(a2-3)Gal(b1-4)GlcNAc
Summary of the method: as §1

[44] = target: Neu5Gc(a2-8)Neu5Gc(a2-3)Gal(b1-4)GlcNAc(b1-3)Gal(b1-4)GlcNAc
Summary of the method: as §1

[45] = target: Neu5Gc(a2-8)Neu5Gc(a2-6)Gal(b1-4)GlcNAc
Summary of the method: as §1

[46] = target: Neu5Gc(b2-6)Gal(b1-4)GlcNAc
Summary of the method: as §1

B1: PX14343A-bvu-539-29-539 (Bacteroides vulgatus) (protein)
chain: DSLTESSSNTFWQTPDDALMALASCYDALQSNQLYNSDQYSLGPLYMDCISDNGGHFNWSGWMEGYDMAMGIHTPSSSIIGSYWKDCYEVISRCNVLIANIDRVDMDASQKAIYQAEAKTIRALMYINLTMTYQDVPFLTAPLTIDEAECEKTDRAAIVAHVMTDLQDAAEVLPQNASSRGHITKGAALSLLGRVALYNEKWDDAIAAYKQVQGLGYSLDPSYAKLFTQSGETSPEIIFAVRYEGPGMSEGAAFNAHWNTPLEAMNGTIDLADAYYCKDGKPTTDTKIAELNGGGGLDVSKPNPAHFENRDPRLYSTLFVPGMLWNGKGGIDTSASNPYANVYGGAAASLSTVYVYKYFDPTDTSNSWDNGQDFYVVRYAEVLLSLAEAMVQKGGYVYSDVTALVNEVRQRADVNMPTVEEVEGTSLSKDELLEVIKHERRVELAFEGLRLFDLYRWKELDKAVANIENERTMYGLAYEARKFNGERDYVWPLPTAELDTNKKLVQHDLWK
[1]
  glycan array binding signal (z-score): -0.463
[2]
  glycan array binding signal (z-score): -0.114
[3]
  glycan array binding signal (z-score): 0.108
[4]
  glycan array binding signal (z-score): 0.423
[5]
  glycan array binding signal (z-score): -0.311
[6]
  glycan array binding signal (z-score): -0.471
[7]
  glycan array binding signal (z-score): -0.071
[8]
  glycan array binding signal (z-score): -0.434
[9]
  glycan array binding signal (z-score): -0.242
[10]
  glycan array binding signal (z-score): -0.298
[11]
  glycan array binding signal (z-score): -0.267
[12]
  glycan array binding signal (z-score): -0.273
[13]
  glycan array binding signal (z-score): -0.16
[14]
  glycan array binding signal (z-score): -0.249
[15]
  glycan array binding signal (z-score): -0.062
[16]
  glycan array binding signal (z-score): -0.255
[17]
  glycan array binding signal (z-score): -0.102
[18]
  glycan array binding signal (z-score): -0.41
[19]
  glycan array binding signal (z-score): -0.249
[20]
  glycan array binding signal (z-score): -0.33
[21]
  glycan array binding signal (z-score): -0.42
[22]
  glycan array binding signal (z-score): -0.116
[23]
  glycan array binding signal (z-score): -0.272
[24]
  glycan array binding signal (z-score): -0.405
[25]
  glycan array binding signal (z-score): -0.162
[26]
  glycan array binding signal (z-score): -0.47
[27]
  glycan array binding signal (z-score): -0.376
[28]
  glycan array binding signal (z-score): 4.74
[29]
  glycan array binding signal (z-score): -0.266
[30]
  glycan array binding signal (z-score): -0.143
[31]
  glycan array binding signal (z-score): -0.424
[32]
  glycan array binding signal (z-score): -0.421
[33]
  glycan array binding signal (z-score): 0.185
[34]
  glycan array binding signal (z-score): -0.385
[35]
  glycan array binding signal (z-score): -0.088
[36]
  glycan array binding signal (z-score): -0.301
[37]
  glycan array binding signal (z-score): -0.254
[38]
  glycan array binding signal (z-score): -0.202
[39]
  glycan array binding signal (z-score): -0.404
[40]
  glycan array binding signal (z-score): -0.155
[41]
  glycan array binding signal (z-score): -0.376
[42]
  glycan array binding signal (z-score): -0.348
[43]
  glycan array binding signal (z-score): -0.184
[44]
  glycan array binding signal (z-score): -0.392
[45]
  glycan array binding signal (z-score): 0.192
[46]
  glycan array binding signal (z-score): -0.331
